How the values were obtained:
[1] = target: BubR1 peptide with the Plk1 binding motif (T620) (human, UniProt O60566); assay: ITC; phosphorylated T620 (RFVSpTPFHEW)
[2] = target: Bub1 peptide with the Plk1 binding motif (Plk1 docking site T609) (human, UniProt O43683); assay: ITC; phosphorylated T609 (QLASpTPFHKW)

Kd [1]: 1110 nM | Kd [2]: 710 nM
B1: Plk1 polo box domain ([…]) (domain or fragment)
chain: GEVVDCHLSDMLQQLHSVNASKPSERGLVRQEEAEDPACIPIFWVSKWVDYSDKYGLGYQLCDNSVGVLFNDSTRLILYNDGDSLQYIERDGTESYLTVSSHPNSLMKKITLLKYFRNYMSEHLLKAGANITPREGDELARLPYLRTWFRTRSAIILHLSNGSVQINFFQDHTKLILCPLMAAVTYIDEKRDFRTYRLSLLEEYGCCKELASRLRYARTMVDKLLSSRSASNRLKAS
